Laboratory results from PMC4336329 (PLoS ONE, 2015).
Out of some 310,000 compounds screened, about 14,000 (4.5%) showed an effect of 50% or more. The effect is printed as a negative number. The list shows a part of the results.

Biological target: human ether-à-go-go-related gene (hERG) potassium channel (human, UniProt Q12809)
Assay: primary screen, population patch clamp on CHO cells stably expressing hERG
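Note: peak tail current of the secondary pulse compared with the same well before compound.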

Sequence of human ether-à-go-go-related gene (hERG) potassium channel (Q12809 whole entry, looked up): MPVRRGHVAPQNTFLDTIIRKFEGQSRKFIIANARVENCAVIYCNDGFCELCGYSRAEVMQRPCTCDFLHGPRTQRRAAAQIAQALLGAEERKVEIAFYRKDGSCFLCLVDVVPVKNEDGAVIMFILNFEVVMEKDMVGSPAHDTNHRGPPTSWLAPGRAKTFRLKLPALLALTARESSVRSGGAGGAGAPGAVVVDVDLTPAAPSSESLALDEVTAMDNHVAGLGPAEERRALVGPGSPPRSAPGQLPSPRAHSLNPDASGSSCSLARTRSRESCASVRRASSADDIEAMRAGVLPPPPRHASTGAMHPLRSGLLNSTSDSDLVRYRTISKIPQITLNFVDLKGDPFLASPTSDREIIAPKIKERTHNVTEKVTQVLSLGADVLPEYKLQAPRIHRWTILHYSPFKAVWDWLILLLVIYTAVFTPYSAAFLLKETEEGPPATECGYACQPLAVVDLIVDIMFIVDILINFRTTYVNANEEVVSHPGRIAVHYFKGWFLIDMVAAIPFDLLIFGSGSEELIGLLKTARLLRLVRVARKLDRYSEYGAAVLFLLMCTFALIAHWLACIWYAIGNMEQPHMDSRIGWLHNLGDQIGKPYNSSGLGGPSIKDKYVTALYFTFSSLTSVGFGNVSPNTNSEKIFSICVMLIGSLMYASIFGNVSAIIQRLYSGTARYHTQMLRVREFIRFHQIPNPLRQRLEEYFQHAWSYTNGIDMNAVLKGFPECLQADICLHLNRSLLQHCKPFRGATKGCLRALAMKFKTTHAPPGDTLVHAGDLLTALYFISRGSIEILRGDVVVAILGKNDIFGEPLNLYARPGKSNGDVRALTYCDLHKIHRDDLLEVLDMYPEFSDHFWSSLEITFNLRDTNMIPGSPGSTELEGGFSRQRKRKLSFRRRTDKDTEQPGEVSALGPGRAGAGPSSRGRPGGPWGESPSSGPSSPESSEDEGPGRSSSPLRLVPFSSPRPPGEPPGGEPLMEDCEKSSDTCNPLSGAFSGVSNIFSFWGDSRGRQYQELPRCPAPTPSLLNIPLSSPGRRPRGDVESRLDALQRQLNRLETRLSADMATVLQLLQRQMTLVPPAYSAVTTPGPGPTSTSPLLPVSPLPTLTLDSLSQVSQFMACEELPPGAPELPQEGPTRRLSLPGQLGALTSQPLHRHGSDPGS

SMILES | hERG current change (%, negative = inhibition) at 10uM
CC(=O)c1c(COC(=O)c2ccccc2)nc2ccccc2[n+]1[O-] | -12.5%
CCOC(=O)C1(CCOc2ccccc2)CCN(Cc2ccc(F)c(OC)c2)CC1 | -35.3%
CCc1ccc2cccc3c2c1N=CN3C | 2.99%
O=c1[nH]cnc(O)c1C(c1cccc([N+](=O)[O-])c1)c1c(O)nc[nH]c1=O | 10.2%
CCOc1ccc2nc(NS(=O)(=O)c3cccs3)sc2c1 | 20.8%
Cc1ccccc1CSCCNC(=O)CCSc1ccccc1 | 2.74%
O=C1C=CC(=O)N1Nc1ccc(Br)cc1 | 8.97%
O=C(CN1C(=O)NC2(CCc3ccccc3C2)C1=O)NCC(F)(F)F (stereo not shown) | 11.4%
CCOC(=O)c1nn(-c2ccc(Cl)cc2C)ccc1=O | -0.255%
Cc1cc(NC(=O)CSc2nc3cc(Cl)ccc3c(=O)n2CC(C)C)no1 | 27.8%
CC(C)c1ccccc1NC(=O)Nc1ccc2c(c1)OCO2 | 11.1%
CCCc1cc(=O)oc2c(C)c(OS(C)(=O)=O)ccc12 | -17%
COC(=O)Cc1c(O)ccn(CCc2ccccc2)c1=O | 51.2%
O=C(Cn1cccc1)N1CCN(c2ccc(F)cc2)CC1 | 1.54%
CN(C)CCOc1ccccc1Cc1ccccc1.O=C(O)CC(O)(CC(=O)O)C(=O)O | -61.9%
CCOC(=O)N1CCN(C(=O)c2ccc(S(=O)(=O)Nc3cccc(C(F)(F)F)c3)cc2)CC1 | -24.1%
CC(=C/c1ccccc1)/C=N/NC(=O)c1cnccn1 | -11.4%
Cc1cc(-c2ccco2)n(-c2ccccc2)n1 | 7.56%
Oc1ccc(-c2c(-c3ccsc3)sc3ccccc23)cc1 | 15.8%
NC(N)=Nc1cc2ccccc2c2ccccc12 | -4.47%
COc1ccc(NC(=O)Cn2nnc(C(=O)NCc3ccccc3OC)c2N)cc1Cl | 11.2%
CC(=O)/C(N=Nc1cc2c(cc1[N+](=O)[O-])OCCO2)=C(\C)O | 21%

SMILES | hERG current change (%, negative = inhibition) at 10uM
CC(C)S(=O)(=O)N1CCCC(C(=O)c2cccc(Cl)c2)C1 (stereo not shown) | -5.17%
O=C(NC1CCS(=O)(=O)C1)c1sc2ccccc2c1Cl (stereo not shown) | -5.59%
O=C(CNC(=O)c1ccc2c(c1)OCCO2)N/N=C/c1ccco1 | 16.3%
Cc1cc(C)c(NC(=O)CSc2nc3ncc(Br)cc3[nH]2)c(C)c1 | 17.6%
CCC(=O)OC1(C(=O)CCl)[C@@H](C)C[C@H]2[C@@H]3CCC4=CC(=O)C=C[C@]4(C)[C@@]3(F)[C@@H](O)C[C@@]21C (stereo partly shown) | 12.4%
COC(=O)c1ccc(/C=C2\SC(=S)N(CCCC(=O)NCCCN3CCOCC3)C2=O)cc1 | -0.615%
Cc1ccc(CNc2cc(-c3nn4c(C)nnc4s3)ccc2C)s1 | 12.2%
CSc1ccccc1NC(=O)C1CC(c2ccccc2Cl)=NO1 (stereo not shown) | 15.7%
NC(=O)NCc1cccnc1 | 22.2%
O=C(CNS(=O)(=O)c1ccc(F)c(Cl)c1)NCCc1ccccc1 | 0.875%
O=C(CC1C(=O)NCCN1Cc1ccoc1)NCCc1ccc(Cl)cc1 (stereo not shown) | -53.7%
COc1ccccc1NC(=O)NC1(C(=O)N2CCC(O)CC2)CCCCC1 | 7.42%
COc1ccc(C(=O)c2coc3ccc(O)c(CN4CCCC4)c23)cc1 | -73.4%
CCOC(=O)c1cccc(N2C(N)=NC(N)=NC2(C)C)c1.Cl | -1.9%
CC1=C(C(=O)Nc2ccccc2)C(c2ccncc2)C(C#N)=C(SCC(=O)NC2CC2)N1 (stereo not shown) | -1.72%
COc1ccc(CCNS(=O)(=O)c2cc3c4c(c2)CCN4C(=O)CC3)cc1 | -20.2%
CCOCc1nnc(NC(=O)c2ccco2)s1 | -24.6%
Cc1c[nH]c2ccccc12 | 14.9%
Cc1ccc(NC(=O)Cn2sc3nc(C)cc(C)c3c2=O)c(Cl)c1 | 9.33%
CC(C)(C)c1ccc(C(=O)CS(=O)(=O)c2ccccc2)cc1 | -21.9%
Cc1cnc(C)c(N2CCC(C(=O)NCc3cccs3)CC2)n1 | -14.3%
CCc1ccc(NC(=O)CSc2ccc(-c3ccco3)nn2)cc1 | -16.6%

SMILES | hERG current change (%, negative = inhibition) at 10uM
COc1ccc(CCNC(=O)c2ccccc2OCc2ccccc2)cc1 | -6.68%
Cc1sc2nc(CN3CCCC3)nc(N3CCC(C(N)=O)CC3)c2c1C | -3.64%
O=C(Nc1ccccc1Br)C1CC(=O)N(c2ccc3c(c2)OCCO3)C1 (stereo not shown) | -8.6%
Cc1nn(C)cc1C(=O)Nc1ccccc1Br | 16.7%
O=C(CSc1nnc(-c2cccs2)o1)N1CCc2ccccc21 | -10.5%
COC(=O)c1ccccc1Nc1cc(C)nc2nc(C)nn12 | -20.4%
CCN(CC)CCC(c1ccc(OC)cc1)c1c(O)cc(OC)cc1OC (stereo not shown) | -66.4%
NS(=O)(=O)c1ccc(CNC(=O)c2cccc(Oc3ccccc3)c2)cc1 | 19.7%
CCn1c(=O)c(CCC(=O)NCCN2CCOCC2)c(C)c2c(C)nn(-c3ccccc3)c21 | -15.1%
Cc1ccc(C(=O)Nc2ccc3cn[nH]c3c2)cc1S(=O)(=O)N1CCCCC1 | -3.13%
CCOC(=O)c1nnn(-c2nonc2-n2cccc2)c1CN1CCCCC1 | -13.4%
O=C(NCc1ccc2c(c1)OCO2)c1ccc(-c2ccc(Cl)cc2)o1 | 0.168%
COc1cc(S(=O)(=O)N2CCOCC2)ccc1NC(=O)CSc1nnc(N)s1 | 5.21%
O=C(COC(=O)c1ccc(F)c(S(=O)(=O)N2CCOCC2)c1)NC1CC1 | -17.4%
O=c1c2ccccc2cnn1Cc1ccc(Br)cc1F | 12%
Cc1nc2cc(NC(=O)C3COc4ccccc4O3)ccc2s1 (stereo not shown) | 3.86%
O=C(COC(=O)C(Cc1ccccc1)NC(=O)c1ccc(Cl)cc1)c1ccc(Cl)cc1 (stereo not shown) | -27.3%
Cc1cc(C(=O)CSc2nnc3ccccn23)c(C)n1-c1ccccc1 | -25.6%
Cc1cc(C(=O)N(C)CC(=O)Nc2ccc(Cl)c(C(F)(F)F)c2)no1 | 19.1%
Cn1c(SCc2nc(-c3ccc(Br)cc3)no2)nnc1-c1ccco1 | -49.6%
Cc1ccc(NC(=S)NNC(=O)C2CC2c2ccc(C)cc2)cc1 (stereo not shown) | -7.77%
COc1ccc(-n2c(SCC(=O)Nc3sc4c(c3C#N)CCCC4)nnc2-c2ccc(O)cc2)cc1 | -10.7%

SMILES | hERG current change (%, negative = inhibition) at 10uM
C=CCN(c1ccccc1)S(=O)(=O)c1cccc(C(=O)NNC(=O)c2ccncc2)c1 | -7.43%
Cc1ccc2c(c1)-c1c(cnn1CC(=O)N1CCCN(Cc3ccccc3F)C1)CO2 | -21.5%
CN(C)c1ccc2c(c1)N=C(c1ccco1)OP2(=S)N1CCOCC1 (stereo not shown) | 8.31%
COc1cccc(OC)c1OC(=O)/C=C/c1ccc(C)o1 | 6.2%
Cn1cccc1C(=O)NCCc1ccc(Cl)cc1 | -1.6%
CNCCC1Sc2ccccc2Oc2ccccc21.O=C(O)C(=O)O (stereo not shown) | -37.9%
CN(C)C(CNC(=O)c1ccc2ccccc2n1)c1ccccc1 (stereo not shown) | 11.1%
N#C/C(C(=O)NCc1ccco1)=C1/SC(Cc2ccc(Cl)cc2)C(=O)N1c1ccccc1 (stereo not shown) | 0.854%
CCOc1cccc2sc(=NC(=O)c3ccco3)n(CC(=O)OC)c12 | 14.7%
c1nc(NCCN2CCOCC2)c2sc3nc(N4CCOCC4)c4c(c3c2n1)CCC4 | -28%
O=S(=O)(N/N=C/c1c(F)cccc1Cl)c1ccccc1 | 4.31%
COc1cccc(C(=O)O/N=C(\N)c2ccncc2)c1OC | 7.84%
O=C(/C=C/c1ccco1)Nc1cccc(-c2nc3ccccc3[nH]2)c1 | -29.1%
COc1ccc(NC(=O)CSc2nc3c([nH]c4ccccc43)c(=O)n2C)cc1 | 0.41%
O=C(NNc1cccc(Cl)c1)c1cccnc1Oc1ccccc1 | -8.21%
COc1cccc(CNC(=O)c2ccccc2SCC(=O)N2CCCC2)c1 | -22.7%
Cc1c(CNC(=O)C2CCC(=O)N(CCc3ccccc3)C2)cnn1C (stereo not shown) | 12.2%
CCOC(=O)N1CCC(NC(=O)C2CCCN(Cc3nc(-c4cccc(C)c4)oc3C)C2)CC1 (stereo not shown) | -63.6%
CCOC(=O)c1cc(-c2ccc(OC(F)F)cc2)nc2c1c(=O)[nH]c(=O)n2C | -19.1%
CCOc1ccc(-c2c(C(=O)N/N=C/c3ccncc3)nnn2-c2nonc2N)cc1 | 9.16%
CCOC(=O)C(c1ccccc1)C(Nc1cc(C(F)(F)F)cc(C(F)(F)F)c1)c1ccccn1 (stereo not shown) | 10.8%
CN1CCN(S(=O)(=O)c2ccc(N(C)Cc3ccc(OC(F)F)cc3)c([N+](=O)[O-])c2)CC1 | -60.8%
